According to a compilation of properties of binary mixtures (doi:10.1021/je2007204):
Some of these densities may be calculated back from excess volumes.

Assay: xn = mol fraction of the nth substance listed

CCCCn1cc[n+](C)c1.F[B-](F)(F)F + O
100 kPa
Conditions	mass density [kg/m3]
293.15 K, x1 = 0.2	1140.9
293.15 K, x1 = 0.295	1159.6
293.15 K, x1 = 0.8988	1201.3
303.15 K, x1 = 0.2	1135.4
303.15 K, x1 = 0.4016	1167.4
303.15 K, x1 = 0.6997	1187.9
303.15 K, x1 = 0.8988	1195.9
303.15 K, x1 = 1	1198.8
313.15 K, x1 = 0.1	1090.6
313.15 K, x1 = 0.295	1145.1
313.15 K, x1 = 0.4016	1158.5
313.15 K, x1 = 0.8988	1187
313.15 K, x1 = 1	1189.9
323.15 K, x1 = 0.4016	1151.5
323.15 K, x1 = 0.5963	1166.2
323.15 K, x1 = 0.8988	1179.9
323.15 K, x1 = 1	1182.8
333.15 K, x1 = 0.295	1130.8
333.15 K, x1 = 0.6997	1164.6
343.15 K, x1 = 0.1	1068.7
343.15 K, x1 = 0.2	1105.1
343.15 K, x1 = 0.5002	1145.8
343.15 K, x1 = 0.6997	1157.6
343.15 K, x1 = 0.8014	1162.3
343.15 K, x1 = 1	1168.9
353.15 K, x1 = 0.1	1061.4
353.15 K, x1 = 0.295	1116.8
353.15 K, x1 = 0.4016	1130.2
353.15 K, x1 = 0.5002	1138.7
353.15 K, x1 = 0.5963	1145
353.15 K, x1 = 0.6997	1150.5
353.15 K, x1 = 0.8014	1155.3
353.15 K, x1 = 0.8988	1159
353.15 K, x1 = 1	1162

CCCC[n+]1ccn(C)c1.F[B-](F)(F)F + O
101 kPa
Conditions	mass density [kg/m3]
293.15 K, x2 = 0.1012	1201.3
293.15 K, x2 = 0.8	1141
298.15 K, x2 = 0.9	1100.4
313.15 K, x2 = 0	1189.9
313.15 K, x2 = 0.5984	1158.5
313.15 K, x2 = 0.705	1145.1
323.15 K, x2 = 0.1012	1179.9
323.15 K, x2 = 0.4037	1166.2
323.15 K, x2 = 0.5984	1151.5
323.15 K, x2 = 0.705	1137.9
333.15 K, x2 = 0	1175.8
333.15 K, x2 = 0.3003	1164.6
333.15 K, x2 = 0.705	1130.8
343.15 K, x2 = 0	1168.9
343.15 K, x2 = 0.3003	1157.6
343.15 K, x2 = 0.4998	1145.8
343.15 K, x2 = 0.8	1105.1
343.15 K, x2 = 0.9	1068.7
353.15 K, x2 = 0	1162
353.15 K, x2 = 0.1012	1159
353.15 K, x2 = 0.1986	1155.3
353.15 K, x2 = 0.4037	1145
353.15 K, x2 = 0.4998	1138.7
353.15 K, x2 = 0.5984	1130.2
353.15 K, x2 = 0.8	1097.9
353.15 K, x2 = 0.9	1061.4

NCCO + CCCCn1cc[n+](C)c1.F[B-](F)(F)F
mass density [kg/m3], 100 kPa
Conditions	x2 = 0	x2 = 0.0999	x2 = 0.2001	x2 = 0.2994	x2 = 0.4004	x2 = 0.4999	x2 = 0.5994	x2 = 0.7005	x2 = 0.7992	x2 = 0.9002
293.15 K	–	–	1096.4	1122.2	1141.9	–	1169	–	1188.1	1196.5
298.15 K	1013	1060.8	1092.4	–	–	1152.6	–	–	1184.1	1192.9
303.15 K	1009.7	–	1088.5	1114.5	1134.3	1148.7	–	1171.5	1180.2	1189.2
313.15 K	1002.5	–	–	1106.7	1126.6	1141	1153.4	1163.9	1172.7	1182
323.15 K	994.8	–	1072.8	1098.9	1119.1	–	–	1156.3	1165.2	1174.9
333.15 K	986.8	–	1064.9	1091.2	1111.6	1126.2	–	1148.8	1158	–
343.15 K	978.6	–	1057	1083.6	1104	1118.8	1131	1141.4	1150.5	1160.8
353.15 K	970.4	1017.2	1049.1	1075.9	1096.7	1111.5	1123.6	1134.2	–	–

CCCC[n+]1ccn(C)c1.F[B-](F)(F)F + NCCO
mass density [kg/m3], 101 kPa
Conditions	x2 = 0	x2 = 0.0998	x2 = 0.2008	x2 = 0.2995	x2 = 0.4006	x2 = 0.5001	x2 = 0.5996	x2 = 0.7006	x2 = 0.7999	x2 = 0.9001
293.15 K	1204.2	1196.5	1188.1	–	1169	–	1141.9	1122.3	1096.4	–
298.15 K	1200.6	1192.9	1184.1	1175.5	1165	1152.6	1138.1	1118.4	–	1060.8
303.15 K	1197	–	1180.2	1171.5	1160.9	1148.7	–	1114.5	1088.5	–
313.15 K	1189.9	–	1172.7	1163.9	1153.4	1141	1126.6	1106.7	1080.6	–
323.15 K	1182.8	1174.9	1165.3	1156.3	–	1133.5	1119.1	1098.9	1072.8	–
333.15 K	1175.8	1167.9	1158	1148.8	1138.4	1126.2	1111.6	1091.2	1064.9	–
343.15 K	1168.9	1160.9	1150.5	1141.4	1131	1118.8	1104	1083.6	1057	1025.2
353.15 K	1162	–	1143.2	–	–	1111.5	–	1075.9	–	–

O + CCCCn1cc[n+](C)c1.F[B-](F)(F)F
100 kPa, x2 = 0
Conditions	mass density [kg/m3]
333.15 K	983.2
343.15 K	977.8

O + CCCC[n+]1ccn(C)c1.F[B-](F)(F)F
101 kPa, x1 = 1
Conditions	mass density [kg/m3]
333.15 K	983.2
343.15 K	977.8
353.15 K	971.8

CCCCn1cc[n+](C)c1.F[B-](F)(F)F + NCCO
100 kPa, x1 = 1
Conditions	mass density [kg/m3]
298.15 K	1200.6
303.15 K	1197
313.15 K	1189.9
323.15 K	1182.8
333.15 K	1175.8
343.15 K	1168.9
353.15 K	1162

NCCO + CCCC[n+]1ccn(C)c1.F[B-](F)(F)F
101 kPa, x1 = 1
Conditions	mass density [kg/m3]
298.15 K	1013
303.15 K	1009.7
313.15 K	1002.5
333.15 K	986.8
343.15 K	978.6
353.15 K	970.4
